Laboratory results as given in article PMC8243516, “Inhibition of lysosomal phospholipase A2 predicts drug-induced phospholipidosis” (Journal of Lipid Research, 2021).
pIC50: −log10 of the molar value. Like-named read-outs stand apart in the source and are kept apart here.

Tests used:
[1] = biological target: T1, recombinant mouse LPLA2 (PLA2G15) (Mus musculus, UniProt Q8VEB4); test: Transacylase activity of LPLA2 (1-O-acyl-N-acetylsphingosine synthase, cell-free liposome assay); type: biochemical
T1 construct: purchased Proteos Inc. (Kalamazoo, MI)
T1 sequence (Q8VEB4 34-412): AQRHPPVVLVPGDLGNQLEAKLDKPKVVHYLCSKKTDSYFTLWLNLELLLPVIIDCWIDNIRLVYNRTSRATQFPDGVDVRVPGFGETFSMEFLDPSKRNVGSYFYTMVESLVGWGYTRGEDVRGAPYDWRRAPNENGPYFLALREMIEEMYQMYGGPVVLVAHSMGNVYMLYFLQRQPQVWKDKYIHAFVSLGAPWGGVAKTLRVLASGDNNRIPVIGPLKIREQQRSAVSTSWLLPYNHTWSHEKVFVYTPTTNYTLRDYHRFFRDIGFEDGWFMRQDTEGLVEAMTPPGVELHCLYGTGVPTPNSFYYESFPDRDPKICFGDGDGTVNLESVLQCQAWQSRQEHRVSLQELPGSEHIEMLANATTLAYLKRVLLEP

LPLA2 = biological target: T2, LPLA2 (Mus musculus, UniProt Q8VEB4); test: LPLA2 thermal stability measurement (SYPRO Orange Tm); type: binding
T2 construct: purchased Proteos Inc. (Kalamazoo, MI)
T2 sequence (Q8VEB4 34-412): T1 sequence (Q8VEB4 34-412)

MDCK cells = test: Screening phospholipidosis assay (LipidTOX Red / NucBlue Live fluorescence ratio); conditions: LipidTOX Red to NucBlue Live fluorescence ratio, 24 h
[2] = LPLA2 dependent 1-O-acyl N-acetylsphingosine synthase activity, read-out: LPLA2 IC50
[3] = 1-O-acyl N-acetylsphingosine synthase activity, pH 4.5, DOPC/sulfatide liposomes, read-out: LPLA2 IC50

`CCN(CC)CCOc1ccc(C(=C(Cl)c2ccccc2)c2ccccc2)cc1` [Clomifene] was tested, and the pIC50 [1, 2] was 4.89.
With `Clc1ccc2c(c1)CCc1cccnc1C2=C1CCNCC1` [Desloratadine] the “(ΔTm)c-(ΔTm)d, difference in melting temperature of LPLA2 alone or in the presence of drug” value (from here on “(ΔTm)c-(ΔTm)d, difference”) (LPLA2) was 0.30 ± 0.1 °C.
`C(=Cc1ccccc1)CN1CCN(C(c2ccccc2)c2ccccc2)CC1` [Cinnarizine, 1-(diphenylmethyl)-4-(3-phenylprop-2-en-1-yl) piperazine] was tested, and the “(ΔTm)c-(ΔTm)d, difference” value (LPLA2; N=3 ± SD) was 0.54 ± 0.9 °C and the pIC50 [1, 3] was 4.39.
Compound `Fc1ccc(C(c2ccc(F)cc2)N2CCN(C/C=C/c3ccccc3)CC2)cc1` [Flunarizine, 1-[bis(4-fluorophenyl)methyl]-4-[(2E)-3-phenylprop-2-en-1-yl]piperazine] has a pIC50 [1, 3] of 5.13.
Compound `CN(C)CCCN1c2ccccc2CCc2ccc(Cl)cc21` [Clomipramine, (3-{14-chloro-2-azatricyclo[9.4.0.0^3,^8]pentadeca-1(11), 3,5,7,12,14-hexaen-2-yl}propyl)dimethylamine] has a pIC50 [1, 3] of 4.77.
In the case of `CN(C)CCOC(c1ccccc1)c1ccccc1` [Diphenhydramine], the pIC50 [1, 3] was 3.57.
In the case of `CN1CCC[C@@H]1CCO[C@](C)(c1ccccc1)c1ccc(Cl)cc1` [Clemastine], the “(ΔTm)c-(ΔTm)d, difference” value (LPLA2; N=3 ± SD) was 0.16 ± 0.9 °C and the pIC50 [1, 3] was 4.88.
`CN(C)CCN(Cc1cccs1)c1ccccn1` [Methapyrilene, N-[2-(dimethylamino)ethyl]-N-[(thiophen-2-yl)methyl]pyridin-2-amine] was tested, and the “(ΔTm)c-(ΔTm)d, difference” value (LPLA2; N=3 ± SD) was -0.48 ± 0.2 °C and the “LPLA2 inhibition (in words)” value ([1]; acyl transferase activity) was “no inhibitory activity”.
`CNCCCC12CCC(c3ccccc31)c1ccccc12` [Maprotiline, methyl(3-{tetracyclo [6.6.2.0^2,^7.0^9,^14]hexadeca-2,4,6,9,11, 13-hexaen-1-yl}propyl)amine] showed a pIC50 [1, 3] of 4.92.
`CN1CCN(C2=Nc3cc(Cl)ccc3Nc3ccccc32)CC1` [Clozapine, 8-Chloro-11-(4-methyl-1-piperazinyl)-5H-dibenzo[b,e][1,4]-diazepine] showed a pIC50 [1, 3] of 4.97.
In the case of `COc1ccc(CCN2CCC(Nc3nc4ccccc4n3Cc3ccc(F)cc3)CC2)cc1` [Astemizole, 1-(4-fluorobenzyl)-2-(1-[4-methoxyphenethyl]piperidin-4-yl)aminobenzimidazole], the pIC50 [1, 3] was 5.09.
`CC(C)NCC(O)COc1cccc2ccccc12` (centres unmarked) [Propranolol, 1-(naphthalen-1-yloxy)-3-[(propan-2-yl)amino]propan-2-ol] showed a pIC50 [1, 3] of 4.30.
In the case of `CSc1ccc2c(c1)N(CCC1CCCCN1C)c1ccccc1S2` (centres unmarked) [Thioridazine, 10-[2-(1-methylpiperidin-2-yl)ethyl]-2-(methylsulfanyl) -10H-phenothiazine], the pIC50 [1, 3] was 4.42.
With `CN(C)C(=O)C(CCN1CCC(O)(c2ccc(Cl)cc2)CC1)(c1ccccc1)c1ccccc1` [Loperamide, 4-[4-(4-chlorophenyl)-4-hydroxypiperidin-1-yl]-N,N-dimethyl-2,2-diphenylbutanamide] the pIC50 ([1]; LPLA2 IC50) was 3.83.
Work on `CN1CCN(CCCN2c3ccccc3Sc3ccc(Cl)cc32)CC1` [Prochlorperazine] yielded a pIC50 [1, 2] of 4.37.
`CN1[C@@H]2CC[C@H]1C[C@@H](OC(c1ccccc1)c1ccccc1)C2` [Benztropine] was tested, and the pIC50 [1, 2] was 4.23.
With `Cc1ccccc1C(OCCN(C)C)c1ccccc1` (centres unmarked) [Orphenadrine] the “(ΔTm)c-(ΔTm)d, difference” value (LPLA2; N=3 ± SD) was -0.38 ± 0.3 °C, the “Ratio (15 μM)” value (MDCK cells) was 0.29 and the pIC50 [1, 2] was 3.59.
`CN(C)CCC=C1c2ccccc2COc2ccccc21` [Doxepin, dimethyl(3-{9-oxatricyclo[9.4.0.0ˆ[1]]pentadeca-1(15),3,5,7,11,13-hexaen-2-ylidene}propyl)amine] showed a pIC50 [1, 3] of 3.52.
